Results published in PubChem BioAssay AID485281 (National Center for Advancing Translational Sciences (NCATS), 2010).
About 260 (0.074%) of roughly 350,000 compounds were called active. Inconclusive means that the source gave no clear call. Such entries were picked first, then a sample of the others. The call rests on the fitted dose curve; in most records, active means well fitted inhibition curve with a large enough effect; inconclusive means small, poorly fitted or top-dose-only effect; inactive means no such curve, though single readings can be large or run the other way. A potency beside an inconclusive call is a rough fit, not a confirmed value.

target: Ferritin light chain (Equus caballus) (UniProt P02791); assay: qHTS Assay for Identification of Novel General Anesthetics; conditions: apoferritin/1-aminoanthracene competitive binding, fluorescence; activity change, negative = displacement: at 77.5 µM (top of the series); further: nearly all actives have a fitted effect of over 20% in size
Method in brief: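 Apoferritin-based anesthetic binding model; compound displacement of fluorescent 1-AMA measured as endpoint fluorescence after 10 minutes at room temperature, scaled to free-ligand and complex controls.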
On the % scale 0 is the no-effect control and ±100 the full control effect; potency means the concentration at half of the fitted maximal effect; tags describe the fitted curve by direction and shape.

UniProt P02791, sequence (P02791 whole entry, looked up): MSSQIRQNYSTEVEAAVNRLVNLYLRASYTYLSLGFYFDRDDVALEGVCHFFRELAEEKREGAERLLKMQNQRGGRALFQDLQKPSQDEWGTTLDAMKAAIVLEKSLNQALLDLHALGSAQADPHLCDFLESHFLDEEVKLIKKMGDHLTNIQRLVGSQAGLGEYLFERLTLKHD

Row | SMILES | activity change, negative = displacement | Potency
1 | CCCCc1nn2c(=O)cc(COC(=O)c3ccc(NC(=O)CCc4ccccc4)cc3)nc2s1 | inactive: -9.27% | 
2 | Cc1ccc(-c2noc(CN(C(=O)CCN3C(=O)c4ccccc4C3=O)C(C)C)n2)cc1 |  | inconclusive: 50.1 µM [inhibitor, single point]
3 | CCn1c(COc2ccc(C)cc2)nnc1SCC(=O)C(C)(C)C |  | inconclusive: 25.1 µM [inhibitor, partial curve]
4 | Cc1nn(C)c(C(=O)NC2C3CC4CC(C3)CC2C4)c1Cl (stereo not given) |  | inconclusive: 20 µM [inhibitor, partial curve]
5 | COCCNC(=O)c1c(CSc2ccc(F)cc2)noc1C(=O)NCc1ccccc1 |  | inconclusive: 39.8 µM [inhibitor, partial curve]
6 | CCCOC1CCCN(C(=O)c2cc(COc3c(F)cccc3F)on2)C1 (stereo not given) |  | inconclusive: 31.6 µM [inhibitor, partial curve]
7 | O=C(CN1C(=O)NC2(CCCCCC2)C1=O)N1CCN(S(=O)(=O)c2ccc(Cl)cc2)CC1 |  | inconclusive: 35.5 µM [inhibitor, single point]
8 | Cn1ccnc1SCC(=O)c1ccc(Br)cc1 |  | inconclusive: 22.4 µM [inhibitor, partial curve]
9 | CCOC(=O)C1CCN(S(=O)(=O)c2cccc(-c3cn4cc(Cl)ccc4n3)c2)CC1 |  | inconclusive: 14.1 µM [inhibitor, partial curve]
10 | O=C(CN1CCCCCC1)Nc1cccc(Br)c1 |  | inconclusive: 28.2 µM [inhibitor, single point]
11 | C=C1/C(=C\C=C2/CCC[C@]3(C)[C@@H]([C@H](C)CCCC(C)(C)O)CC[C@@H]23)C[C@@H](O)C[C@@H]1O |  | inconclusive: 10 µM [inhibitor, partial curve]
12 | Cc1cc[n+](C(C)C(=O)c2ccc(-c3ccccc3)cc2)cc1 (stereo not given) |  | inconclusive: 31.6 µM [inhibitor, single point]
13 | COc1ccc(NC(=O)Cn2c(SCc3ccc(F)cc3)nc3cccnc32)cc1OC | inactive: -21.6% | 
14 | CCOc1ccc(N(CC(=O)Nc2nccs2)S(=O)(=O)c2c(C)noc2C)cc1 |  | inconclusive: 31.6 µM [inhibitor, partial curve]
15 | Cc1ccc(N2CCN(CC(O)COC3CCCCC3)CC2)cc1 (stereo not given) | inactive: -8.75% | 
16 | COCc1c(CCl)cnc(C)c1O |  | inconclusive: 39.8 µM [inhibitor, single point]
17 | Cc1ccc(SCc2cc(=O)n3ccsc3n2)c(C)c1 |  | inconclusive: 28.2 µM [inhibitor, single point]
18 | Cc1ccc(NC(=O)CCn2cccc2)cc1Cl |  | inconclusive: 20 µM [inhibitor, partial curve]
19 | COc1cccc(-n2c(SCC(=O)NCCc3ccccc3)nnc2-c2ccoc2C)c1 |  | inconclusive: 15.8 µM [inhibitor, partial curve]
20 | Cc1ccc(-n2nc3c(c2NC(=O)C(C)(C)C)CSC3)c(C)c1 |  | inconclusive: 35.5 µM [inhibitor, partial curve]
21 | COc1ccccc1C(=O)NNC(=O)C12CC3CC(CC(C3)C1)C2 |  | inconclusive: 12.6 µM [inhibitor, partial curve]
22 | CCC(C)(C)NC(=O)COc1ccc(C(=O)c2ccccc2)cc1 |  | inconclusive: 22.4 µM [inhibitor, partial curve]
23 | Cc1nc2nc(SCC(=O)C(C)(C)C)[nH]c2cc1Br |  | inconclusive: 14.1 µM [inhibitor, partial curve]
24 | CCSc1nnc(-c2sc3nnc(-c4ccccc4)c(-c4ccccc4)c3c2N)o1 | inactive: -17.5% | 

Row | SMILES | activity change, negative = displacement | Potency
25 | Cc1nn(CC(=O)N/N=C/c2cccs2)c(C)c1[N+](=O)[O-] | inactive: 4.05% | 
26 | Cc1ccc(CCNC(=O)CS(=O)Cc2nc(-c3ccccc3C)oc2C)cc1 (stereo not given) | inactive: 1.27% | 
27 | CCOC(=O)C(C)Sc1nnc(-c2ccccc2O)n1-c1ccc(C)cc1 (stereo not given) |  | inconclusive: 35.5 µM [inhibitor, partial curve]
28 | O=C(Cn1cnc2c(oc3ccccc32)c1=O)Nc1ccc(F)cc1F | inactive: 382% | 
29 | COc1ccc(-c2nn(-c3ccccc3)cc2C2CC(c3cccs3)=NN2C(=O)CCC(=O)O)cc1 (stereo not given) | inactive: -4.77% | 
30 | CCOC(=O)C1=C(O)/C(=C/c2ccc(OCC(=O)O)c(OCC)c2)SC1=Nc1ccc(OC)cc1 | inactive: -3.01% | 
31 | CC1CCN(c2c(NCc3ccc(C(=O)N4c5ccccc5CC4C)cc3)c(=O)c2=O)CC1 (stereo not given) | inactive: -5.11% | 
32 | Cc1cc(C)nc(SCc2ccc(C(=O)N/N=C/c3cccc(O)c3O)cc2)n1 | inactive: -17.5% | 
33 | CCOC(=O)C(=NCCCN(C)C)NNc1ccc(Br)cc1 | inactive: -12% | 
34 | O=C(NCc1cccnc1)/C(=C/c1ccc(-c2cccc(Cl)c2)o1)S(=O)(=O)c1ccccc1 |  | inconclusive: 50.1 µM [inhibitor, partial curve]
35 | Cc1ccc2nc(CCc3ccc(N)cc3)[nH]c2c1 |  | inconclusive: 11.2 µM [inhibitor, partial curve]
36 | Cc1cc2cc(CNC(=O)CC(C)C)ccc2n1C |  | inconclusive: 35.5 µM [inhibitor, single point]
37 | C#CC(CC)(CC)NC(=S)Nc1cccc(C(C)=O)c1 |  | inconclusive: 31.6 µM [inhibitor, partial curve]
38 | CC(=O)/C(N=Nc1nc2c([nH]1)c(=O)n(C)c(=O)n2C)=C(\C)O | inactive: -21% | 
39 | CCCc1nnc(NC(=O)c2nc(S(=O)(=O)Cc3cccc(C)c3)ncc2Cl)s1 | inactive: -6.77% | 
40 | CCCCn1c(-c2csc(CCC)c2)n[nH]c1=S |  | inconclusive: 22.4 µM [inhibitor, partial curve]
41 | Oc1ccc(N=Cc2sc3ccccc3c2Cl)cc1 |  | inconclusive: 35.5 µM [inhibitor, partial curve]
42 | COc1ccc(CN(C(=O)c2nsc(Cl)c2Cl)C(C(=O)NC2CCCC2)c2ccc(OC)cc2)cc1 (stereo not given) |  | inconclusive: 8.91 µM [inhibitor, partial curve]
43 | Cn1nnc(NC(=O)COc2ccc(C3CCCCC3)cc2)n1 |  | inconclusive: 15.8 µM [inhibitor, partial curve]
44 | Nc1cc(=O)nc(SCC(=O)Nc2ccc(F)cc2)n1CCc1ccccc1 |  | inconclusive: 28.2 µM [inhibitor, partial curve]
45 | CC(=O)Nc1cccc(NC(=O)COC(=O)CO/N=C(\C)c2ccc3c(c2)OCO3)c1 |  | inconclusive: 22.4 µM [inhibitor, partial curve]
46 | CC(=O)c1ccc(NC(=O)c2ccc(-c3ccc(Cl)cc3)o2)cc1 |  | inconclusive: 28.2 µM [inhibitor, partial curve]
47 | CCN(CC)CCNC(=O)c1ccc2nc(CCc3ccccc3)oc2c1 |  | inconclusive: 31.6 µM [inhibitor, partial curve]
48 | CN=Cc1nc(-c2ccccc2)oc1O | inactive: -2.16% | 

Row | SMILES | activity change, negative = displacement | Potency
49 | COc1ccccc1NC(=O)C1CCN(C(=O)c2sc3nc[nH]c(=O)c3c2C)CC1 | inactive: -11.7% | 
50 | Cc1cccc(-c2nnc(SCc3ccc(C#N)cc3)n2Cc2ccco2)c1 |  | inconclusive: 28.2 µM [inhibitor, partial curve]
51 | CC1CCN(C(=O)c2ccc(NS(=O)(=O)c3ccccc3)cc2)CC1 |  | inconclusive: 25.1 µM [inhibitor, single point]
52 | CC(=O)Nc1ccc(S(=O)(=O)N(C)c2ccccc2)cc1 |  | inconclusive: 50.1 µM [inhibitor, single point]
53 | CC1CCN(C(=O)c2ccc(CS(=O)(=O)Cc3ccccc3)cc2)CC1 |  | inconclusive: 25.1 µM [inhibitor, partial curve]
54 | CCN(CC)CCOC(=O)c1ccc(NC(=O)c2cc3cc(OC)ccc3oc2=O)cc1 | inactive: -2.65% | 
55 | O=C(CN1CCOCC1)Nc1scc2c1c(=O)oc1ccccc12 | inactive: 7.59% | 
56 | Cc1ccc(-c2nc3ccccn3c2C=O)cc1 | inactive: -8.64% | 
57 | CC(C)Cc1ccc(C(C)C(=O)Nc2ncccn2)cc1 (stereo not given) |  | inconclusive: 20 µM [inhibitor, partial curve]
58 | CC(=O)NC12CC3CC(C1)CC(C(=O)OCC(=O)c1ccc4c(c1)OCCO4)(C3)C2 |  | inconclusive: 31.6 µM [inhibitor, partial curve]
59 | Cc1cccc(C)c1Nc1c(-c2ccsc2)nc2cccc(C)n12 | inactive: 8.54% | 
60 | O=C(NCCCNC(=O)c1ccccc1Br)c1ccccc1Br | inactive: -0.207% | 
61 | CC(Nc1ccccc1)c1cc(Cl)ccc1O (stereo not given) |  | inconclusive: 50.1 µM [inhibitor, single point]
62 | O=C(NC1CCN(Cc2ccccc2)C1)c1cc(COc2ccc(F)cc2F)on1 (stereo not given) |  | inconclusive: 25.1 µM [inhibitor, partial curve]
63 | CCOc1ccc(-c2n[nH]c(C)c2Oc2ccc(OC)cc2)c(O)c1 |  | inconclusive: 3.98 µM [inhibitor, full curve]
64 | COC(=O)c1cc2oc3ccccc3c2n1Cc1ccccc1Cl | inactive: 3.48% | 
65 | CCc1ccc(Sc2cc(C(=O)NCCCN3CCC(C)CC3)c3ccccc3n2)cc1 |  | inconclusive: 25.1 µM [inhibitor, partial curve]
66 | Cc1c(C=O)c2ccccn2c1C(=O)c1ccccc1 |  | inconclusive: 25.1 µM [inhibitor, partial curve]
67 | O=C1/C(=C/c2ccccc2Cl)SC(=S)N1CCCC(=O)N(CCO)c1ccccc1 |  | inconclusive: 35.5 µM [inhibitor, partial curve]
68 | COc1ccc(CNC(=O)C(=O)Nc2cccc(C)c2C)cc1 |  | inconclusive: 3.55 µM [inhibitor, full curve]
69 | CCc1[nH]nc(C(=O)NC2CCCc3c2cnn3-c2cc(C)cc(C)c2)c1C (stereo not given) |  | inconclusive: 50.1 µM [inhibitor, single point]
70 | C/C=C1\COC(C(=O)NCCN2CCCC2)(C(F)(F)F)C=C1C=C1CCCCC1 (stereo not given) |  | inconclusive: 31.6 µM [inhibitor, partial curve]
